Assay results published in the supplement of paper PMC12217912.
This is one part of the list. Sequences were assembled here from the parent chain. Inactive controls read about 0.05.

B1: TEV protease; numbered along this chain (parent)
chain: MGESLFKGPRDYNPISSSICHLTNESDGHTTSLYGIGFGPFIITNKHLFRRNNGTLVVQSLHGVFKVKDTTTLQQHLVDGRDMIIIRMPKDFPPFPQKLKFREPQREERICLVTTNFQTKSMSSMVSDTSCTFPSGDGIFWKHWIQTKDGQCGSPLVSTRDGFIVGIHSASNFTNTNNYFTSVPKNFMELLTNQEAQQWVSGWRLNADSVLWGGHKVFMVKPEEPFQPVKEATQL

Variants of: B1
Assay: raw area under fraction-flipped curve 0-4 h after induction (AUC4h, not background-subtracted), DNA-recorder readout of cleavage of the substrate (dimensionless); higher = more cleavage of the substrate by the protease variant
Conditions: temperature: 34 °C; time window: 0-4 h after rhamnose induction
Description: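 In vivo DNA recorder in E. coli TOP10(DE3) ΔrhaA at 34 °C. Each TEVp single-site mutant (parent TEVp 0) is paired with a single-site variant of the 7-mer TEVs (canonical ENLYFQ|S). The substrate sits between flexible linkers in a Bxb1-sfGFP-TEVs-SsrA fusion, so cleavage stabilises Bxb1 and speeds flipping of a recombination array, read by NGS. The value is the raw area under the fraction-flipped curve over 0-4 h after rhamnose induction (AUC4h), with ≥20 reads per time point. It is not background-subtracted; inactive controls average about 0.047.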
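Further: Bxb1 expression induced with 0.2% (w/v) L-rhamnose at OD600 near 0.5, cultures sampled hourly, flipped fraction per protease–substrate barcode pair counted by paired-end Illumina sequencing.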

Row | Variant | area with substrate ENLYFQA | area with substrate ENLYFQD | area with substrate ENLYFQG | area with substrate ENLYFQH | area with substrate ENLYFQI | area with substrate ENLYFQL | area with substrate ENLYFQM | area with substrate ENLYFQR | area with substrate ENLYFQS | area with substrate ENLYFQT | area with substrate ENLYFQV | area with substrate ENLYFQW | area with substrate ENLYFQY | area with substrate ENLYFQC | area with substrate ENLYFQF | area with substrate ENLYFQN | area with substrate ENLYFQK | area with substrate ENLYFQP | area with substrate ENLYFQQ | area with substrate ENLYFQE
1 | H215M | 0.0767 | 0.0762 | 0.0855 | 0.0653 | 0.0657 | 0.0434 | 0.062 | 0.0559 | 0.0839 | 0.0719 | 0.0571 | 0.0571 | 0.0555 | – | – | – | – | – | – | –
2 | F218A | 0.093 | – | 0.0771 | – | 0.0431 | 0.065 | 0.0698 | 0.0625 | 0.0974 | – | 0.0594 | 0.0501 | 0.073 | 0.0952 | 0.0698 | 0.0798 | – | – | – | –
3 | F218K | 0.0733 | – | 0.0979 | – | – | – | 0.0771 | – | 0.0704 | 0.0646 | – | 0.0702 | – | 0.0556 | – | 0.0668 | 0.0605 | – | – | –
4 | M219H | 0.0831 | 0.0678 | 0.0905 | – | 0.0569 | 0.0685 | 0.0821 | 0.0598 | 0.0997 | 0.0504 | – | 0.0489 | 0.0627 | 0.0949 | 0.0433 | 0.0643 | 0.0653 | 0.0569 | – | –
5 | M219P | 0.0756 | 0.0627 | – | – | 0.0636 | 0.0588 | 0.0665 | 0.0529 | 0.0796 | – | 0.052 | 0.0544 | 0.0661 | 0.0999 | 0.0473 | – | 0.0569 | – | 0.0292 | –
6 | V220L | 0.0855 | 0.0419 | – | 0.0491 | 0.0688 | 0.0624 | 0.0621 | 0.0598 | 0.0939 | 0.0611 | 0.0614 | 0.0687 | 0.0766 | 0.126 | – | 0.0907 | 0.0688 | 0.0629 | – | –
7 | V220Y | 0.102 | – | 0.11 | 0.07 | 0.0542 | 0.0701 | 0.0857 | 0.0673 | 0.101 | – | – | 0.0591 | – | 0.11 | – | 0.0518 | 0.0635 | 0.0594 | – | –
8 | K221C | 0.103 | 0.0649 | – | – | 0.0719 | 0.0562 | 0.0802 | 0.0672 | 0.101 | – | 0.0643 | 0.0591 | 0.0589 | 0.115 | 0.0703 | 0.0901 | 0.0609 | 0.0612 | 0.065 | –
9 | K221H | 0.124 | 0.0897 | 0.0973 | 0.0683 | – | 0.0554 | 0.0667 | 0.0572 | 0.101 | – | – | 0.0485 | 0.0571 | 0.117 | – | 0.0738 | 0.0585 | 0.0641 | 0.0729 | –
10 | K221M | 0.0834 | – | 0.0944 | 0.089 | 0.0656 | 0.0595 | 0.0642 | – | 0.0957 | 0.0682 | 0.0542 | – | 0.0884 | – | – | 0.0812 | 0.0714 | 0.0634 | – | –
11 | P222N | 0.1 | 0.0695 | 0.1 | 0.107 | 0.0619 | – | 0.0643 | – | 0.101 | 0.0685 | 0.0803 | – | 0.0765 | 0.112 | – | 0.0771 | 0.0667 | – | 0.0713 | 0.058
12 | Q227F | 0.0926 | – | 0.109 | 0.0739 | – | – | – | 0.0546 | 0.0995 | – | – | – | 0.064 | 0.0874 | 0.0891 | 0.0823 | 0.0726 | – | 0.0638 | –
13 | Q227G | 0.121 | 0.0651 | – | – | – | 0.067 | 0.0821 | – | 0.112 | – | – | 0.0673 | 0.0705 | – | – | – | 0.0589 | 0.0569 | – | –
14 | Q227Y | 0.0849 | – | – | – | – | 0.0643 | 0.0791 | 0.0543 | 0.0888 | 0.0717 | 0.0534 | 0.0548 | – | 0.107 | – | 0.0642 | 0.083 | 0.0589 | 0.0917 | 0.051
15 | P228C | 0.0904 | – | 0.0962 | 0.0727 | – | 0.0584 | – | 0.0551 | 0.105 | 0.0696 | 0.0607 | 0.0597 | 0.0855 | 0.0901 | 0.0797 | 0.0819 | 0.063 | 0.054 | – | –
16 | P228D | 0.103 | – | 0.0878 | – | 0.067 | – | 0.0619 | – | 0.112 | 0.0766 | – | – | – | – | – | 0.0817 | 0.081 | – | 0.0906 | –
17 | V229P | 0.117 | 0.0782 | 0.107 | 0.0944 | 0.0528 | 0.0751 | 0.0957 | 0.0617 | 0.117 | 0.0422 | 0.0619 | 0.0518 | 0.0778 | 0.113 | – | 0.0816 | 0.0568 | 0.0604 | 0.0769 | –
18 | E231L | 0.0744 | 0.0781 | 0.0781 | – | – | 0.0687 | 0.0855 | 0.0531 | 0.0924 | 0.0683 | 0.0624 | – | – | – | – | – | 0.0861 | – | – | –
19 | E231P | 0.112 | 0.0656 | 0.095 | 0.0823 | – | – | 0.0793 | – | 0.107 | 0.0639 | – | – | – | – | – | 0.0695 | – | – | 0.0579 | –
20 | E231R | 0.117 | 0.0706 | – | 0.0518 | 0.0591 | 0.0596 | 0.0885 | 0.0534 | 0.108 | – | – | – | 0.0697 | – | 0.0858 | – | 0.0882 | 0.0876 | – | –
21 | T233C | 0.097 | – | 0.0881 | 0.067 | – | 0.0667 | 0.0746 | 0.0577 | 0.0932 | 0.0721 | – | – | 0.0998 | 0.0838 | 0.069 | – | – | – | – | –
22 | Q234C | 0.0893 | 0.0703 | 0.0864 | – | – | 0.0589 | – | 0.039 | 0.0978 | 0.0691 | 0.0728 | 0.0712 | 0.0979 | 0.0905 | 0.0775 | 0.0802 | 0.0721 | – | 0.0738 | 0.0706
23 | Q234D | 0.113 | 0.0693 | 0.105 | – | 0.0535 | 0.0623 | – | – | 0.114 | 0.0673 | 0.0603 | 0.0668 | 0.114 | 0.146 | – | 0.0909 | 0.0766 | 0.0695 | – | –
24 | L235A | 0.0835 | 0.066 | 0.121 | – | 0.0645 | 0.0638 | 0.0799 | 0.062 | 0.104 | 0.0511 | 0.0444 | – | 0.0629 | 0.112 | 0.0787 | 0.0725 | 0.0571 | – | – | –
25 | L235G | 0.0853 | – | – | – | 0.0448 | 0.0835 | 0.0946 | – | 0.108 | – | – | – | 0.0801 | – | 0.0785 | – | 0.0699 | – | – | –
26 | L235S | 0.111 | – | 0.102 | – | 0.0517 | 0.05 | 0.106 | 0.0635 | 0.107 | 0.051 | 0.0698 | 0.0841 | – | – | – | – | – | 0.0592 | – | –
27 | E3I | – | 0.0622 | 0.119 | 0.0799 | 0.0529 | 0.0622 | 0.106 | 0.0575 | 0.121 | – | – | 0.0873 | – | 0.138 | – | – | 0.0595 | 0.0643 | – | –
